From PubChem BioAssay AID504332 (National Center for Advancing Translational Sciences (NCATS), 2011)
“And” between values parts separate entries of the source, which are not always exact repeats. Identical values can stand only once. About 31,000 (8.9%) of roughly 350,000 compounds were called active. Inconclusive results, whose numbers are uncertain, are shown with a selection of clear calls. Calls come from the whole dose curve; as a rule, active = well fitted inhibition curve with a large enough effect; inconclusive = small, poorly fitted or top-dose-only effect; inactive = no such curve, though single readings can be large or run the other way. Potencies beside an inconclusive call are fits to weak or partial responses and may not hold up.

Each compound was assayed against Histone-lysine N-methyltransferase EHMT2 (Homo sapiens) (UniProt Q96KQ7) (assay: qHTS Assay for Inhibitors of Histone Lysine Methyltransferase G9a). Settings: G9a H3K9 monomethylation, AlphaScreen, 2 h; activity, negative = inhibition: at 59 µM (top of the series) unless noted.
In short: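 G9a (20 nM) preincubated 15 min RT with compounds, then 500 nM biotinylated H3K9 peptide and 20 uM SAM added; 2 h RT reaction. Monomethyl-H3K9 product detected by AlphaScreen with anti-H3K9me1 antibody, streptavidin donor and anti-rabbit IgG acceptor beads.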
% is set by controls: 0 for no effect and ±100 for the full control effect; potency is the fitted concentration of half-maximal effect; tags give direction and shape of the fitted curve.
Note: nearly all actives have a fitted effect of over 75% in size.

UniProt Q96KQ7, sequence (Q96KQ7 whole entry, looked up): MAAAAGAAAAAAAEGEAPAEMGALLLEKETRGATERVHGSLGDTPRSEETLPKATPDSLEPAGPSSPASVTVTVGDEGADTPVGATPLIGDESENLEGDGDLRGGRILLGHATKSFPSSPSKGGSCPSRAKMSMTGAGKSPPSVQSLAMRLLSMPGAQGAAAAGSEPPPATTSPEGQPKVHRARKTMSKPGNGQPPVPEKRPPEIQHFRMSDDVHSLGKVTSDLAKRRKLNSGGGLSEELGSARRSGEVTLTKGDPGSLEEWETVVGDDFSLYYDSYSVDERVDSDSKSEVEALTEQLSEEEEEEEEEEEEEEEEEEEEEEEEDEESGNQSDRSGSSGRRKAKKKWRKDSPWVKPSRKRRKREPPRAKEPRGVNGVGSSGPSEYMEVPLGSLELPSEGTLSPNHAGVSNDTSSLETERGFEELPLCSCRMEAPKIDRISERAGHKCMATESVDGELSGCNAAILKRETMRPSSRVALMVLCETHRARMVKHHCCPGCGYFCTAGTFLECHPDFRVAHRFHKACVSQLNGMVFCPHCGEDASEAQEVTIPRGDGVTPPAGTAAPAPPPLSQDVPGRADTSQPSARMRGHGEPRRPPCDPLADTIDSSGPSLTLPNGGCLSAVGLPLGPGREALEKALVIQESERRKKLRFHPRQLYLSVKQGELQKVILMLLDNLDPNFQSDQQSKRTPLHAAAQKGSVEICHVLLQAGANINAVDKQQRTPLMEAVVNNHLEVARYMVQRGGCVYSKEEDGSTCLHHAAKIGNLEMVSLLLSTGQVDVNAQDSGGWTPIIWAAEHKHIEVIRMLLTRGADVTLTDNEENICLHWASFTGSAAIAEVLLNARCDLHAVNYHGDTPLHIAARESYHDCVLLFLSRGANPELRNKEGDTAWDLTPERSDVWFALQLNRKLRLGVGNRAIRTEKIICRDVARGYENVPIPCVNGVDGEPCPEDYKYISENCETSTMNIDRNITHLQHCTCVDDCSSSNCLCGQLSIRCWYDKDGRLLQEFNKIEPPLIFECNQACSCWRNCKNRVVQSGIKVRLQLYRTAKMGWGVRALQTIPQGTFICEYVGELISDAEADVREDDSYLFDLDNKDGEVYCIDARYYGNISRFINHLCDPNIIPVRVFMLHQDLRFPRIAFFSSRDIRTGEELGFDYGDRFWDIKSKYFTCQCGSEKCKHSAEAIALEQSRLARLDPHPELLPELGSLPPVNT

| Structure (SMILES) | Potency | activity, negative = inhibition |
| --- | --- | --- |
| CCOc1ccc(S(=O)(=O)N/N=C(\C)Cc2ccc(OC)cc2)cc1 | active: 39.8 µM |  |
| CN(CC(=O)Nc1ccc(N2CCOCC2)cc1)CC(=O)Nc1ccc(C(F)(F)F)cc1 | inconclusive: 35.5 µM [inhibitor, single point] |  |
| O=C(Cn1ncn2cccc2c1=O)NCc1cccc(Br)c1 | inconclusive: 28.2 µM [inhibitor, partial curve, poor fit] |  |
| CC1(c2ccc3ccccc3c2)NC(=O)N(CC(=O)NCc2cccs2)C1=O (stereo not drawn) | inconclusive: 3.16 µM [inhibitor, partial curve, poor fit] |  |
| O=C(CCc1nc2ccccc2s1)NC1CCOC1=O (stereo not drawn) |  | inactive: 40.2% |
| CN(C)CCN(Cc1ccccc1)S(=O)(=O)c1csc(C(N)=O)c1 |  | inactive: -0.651% |
| Cc1n[nH]c(C)c1S(=O)(=O)N1CCCC(C(=O)N2CCN(c3ccc(Cl)cc3)CC2)C1 (stereo not drawn) | inconclusive: 89.1 µM [inhibitor, partial curve, poor fit] |  |
| CC(=O)Oc1ccc(-c2ccc(C(=O)NCCc3ccc(S(N)(=O)=O)cc3)cc2)cc1 | active: 70.8 µM |  |
| CCn1c(C)c(C)c2cc(C(=O)N3CCN(c4ccccc4)CC3)ccc21 | inconclusive: 39.8 µM [inhibitor, single point] and inconclusive: 25.1 µM [inhibitor, single point] |  |
| CCCCCCCCCCOC(=O)Cn1c(COc2ccccc2C)[n+](C)c2ccccc21 |  | inactive: -20.1% [at 102 µM] |
| CC(Sc1ccsc1[N+](=O)[O-])C(=O)N1CCN(c2ccccn2)CC1 (stereo not drawn) | inconclusive: 44.7 µM [inhibitor, partial curve] |  |
| COc1ccc(N2Cc3ccccc3C2=NC(=O)c2cncc(Br)c2)cc1 | active: 31.6 µM |  |
| O=C(Nc1ccnc(-c2cccnc2)n1)c1cccc(Cl)c1Cl |  | inactive: 9.76% [at 102 µM] |
| CCC1SC2=NC(C)=C(C(=O)OCCOC)C(c3ccc(C(=O)OC)cc3)N2C1=O (stereo not drawn) | inconclusive: 89.1 µM [inhibitor, single point] |  |
| Cc1cc(C(=O)COC(=O)CC2Sc3ccccc3NC2=O)c(C)n1-c1ccc(Br)cc1 (stereo not drawn) | active: 56.2 µM |  |
| Cc1nc(-c2ccccn2)nc(SCC(=O)c2ccc(F)cc2)c1Cl | inconclusive: 70.8 µM [inhibitor, partial curve] |  |
| COc1cccc(Oc2ccc(N)cc2)c1 | inconclusive: 31.6 µM [inhibitor, single point] |  |
| C/C=C\C=C/C(=O)Nc1cccc(C2=NOC3(C2)C[C@H](C(N)=O)N(C(=O)c2ccc(OC)cc2)C3)c1 (stereo partly drawn) | inconclusive: 10 µM [inhibitor, single point] |  |
| COc1ccc(/C=C(\C#N)C(=O)NC(C)c2ccccc2)cc1O (stereo not drawn) |  | inactive: 6.53% [at 102 µM] |
| COC(=O)c1c(NC(=O)CSc2nnc(-c3cccnc3)n2Cc2ccco2)sc(C)c1C | inconclusive: 15.8 µM [inhibitor, partial curve] |  |
| CN(C)c1ccc(/C=N/NC2=NS(=O)(=O)c3ccccc32)cc1 | inconclusive: 70.8 µM [inhibitor, single point] |  |
| COCCNC(=S)N1CCC(c2nc(-c3ccc(N(C)C)cc3)no2)CC1 | inconclusive: 56.2 µM [inhibitor, partial curve] |  |

| Structure (SMILES) | Potency | activity, negative = inhibition |
| --- | --- | --- |
| O=C(N/N=C1\C2CN3CCN(C2)CC1(c1ccccc1)C3)Nc1ccccc1 |  | inactive: -31.8% [at 102 µM] |
| O=C(NCc1cccc(Cl)c1)C1CCCN(c2nn3cc(-c4ccc(F)cc4)nc3s2)C1 (stereo not drawn) | inconclusive: 11.2 µM [inhibitor, partial curve] |  |
| Nc1nnnn1/N=C/c1ccc(F)cc1 |  | inactive: 32.4% [at 102 µM] |
| Cc1cc(/C=N/n2cnnc2)c(C)n1-c1ccc(OCc2ccc(F)cc2)cc1 | inconclusive: 22.4 µM [inhibitor, single point] |  |
| COCC(=O)Nc1ccc([N+](=O)[O-])cc1OC | inconclusive: 1.41 µM [inhibitor, full curve] |  |
| COc1ccc(-c2csc(NC3CCCCC3)n2)c(OC)c1 | active: 44.7 µM |  |
| O=C(Cc1ccccc1[N+](=O)[O-])NCc1ccc(Cl)cc1Cl | inconclusive: 39.8 µM [inhibitor, partial curve, poor fit] |  |
| O=S(=O)(c1ccccc1)c1nc(-c2ccco2)oc1Nc1ccccc1 | active: 7.94 µM |  |
| COc1ccc(Nc2nc(N)c([N+](=O)[O-])c(N3CCN(C)CC3)n2)cc1 | inconclusive: 1 µM [inhibitor, single point] |  |
| Cc1cc(C(=O)N/N=C2\CCCc3ccccc32)c(C)o1 |  | inactive: -2.8% [at 102 µM] |
| CC(=O)c1ccc(NC(=O)c2nc(-c3ccccc3)n(-c3ccc(C)cc3)n2)cc1 | inconclusive: 1.58 µM [inhibitor, partial curve, poor fit] |  |
| COC1CCN(C(=O)c2ccc3oc(C(C)C)nc3c2)CC1 |  | inactive: -12.1% [at 102 µM] |
| CCCC(C)C(=O)OCC(=O)Nc1c(Br)cc(C)cc1Br (stereo not drawn) | inconclusive: 100 µM [inhibitor, single point] |  |
| O=C(c1ccco1)N1CCN(c2ncnc3c2[nH]c2ccc(Cl)cc23)CC1 | inconclusive: 56.2 µM [inhibitor, partial curve, poor fit] |  |
| CCOc1ccc(N2C(=O)/C(=C\c3ccc(O)c(OC)c3)S(=O)(=O)C2c2cccc([N+](=O)[O-])c2)cc1 (stereo not drawn) | inconclusive: 35.5 µM [inhibitor, partial curve] |  |
| COc1ccc(C(C(=O)NC(C)(C)C)N(Cc2ccco2)C(=O)CCC(=O)Nc2cc(C)on2)cc1 (stereo not drawn) | inconclusive: 1.58 µM [inhibitor, partial curve, poor fit] |  |
| COc1ccc(NC(=O)C2CC(=O)OC23CCOC(C)(C)C3)cc1 (stereo not drawn) | inconclusive: 39.8 µM [inhibitor, partial curve, poor fit] |  |
| COc1ccc(N2CCN(C(=O)c3cnc(N4CCOCC4)c4ccccc34)CC2)cc1 | inconclusive: 39.8 µM [inhibitor, partial curve, poor fit] |  |
| CC(C)c1ccc(Nc2nc(CC(=O)O)cs2)cc1 | active: 39.8 µM |  |
| Cc1cccc(NCc2ccccc2O)n1 | inconclusive: 39.8 µM [inhibitor, partial curve, poor fit] |  |
| C=C(C)Cn1c(N2CCN(c3ccc(OC)cc3)CC2)nc2c1c(=O)n(C)c(=O)n2C |  | inactive: 16.7% |
